Test results taken from paper PMC4336329 (PLoS ONE, 2015).
Screen size: about 310,000 compounds; about 2,200 (0.71%) showed an effect of 50% or more. The effect is printed as a negative number. Some of the results follow.

target: human ether-à-go-go-related gene (hERG) potassium channel (human, UniProt Q12809); assay: primary screen, population patch clamp on CHO cells stably expressing hERG
Sequence (Q12809 whole entry, looked up): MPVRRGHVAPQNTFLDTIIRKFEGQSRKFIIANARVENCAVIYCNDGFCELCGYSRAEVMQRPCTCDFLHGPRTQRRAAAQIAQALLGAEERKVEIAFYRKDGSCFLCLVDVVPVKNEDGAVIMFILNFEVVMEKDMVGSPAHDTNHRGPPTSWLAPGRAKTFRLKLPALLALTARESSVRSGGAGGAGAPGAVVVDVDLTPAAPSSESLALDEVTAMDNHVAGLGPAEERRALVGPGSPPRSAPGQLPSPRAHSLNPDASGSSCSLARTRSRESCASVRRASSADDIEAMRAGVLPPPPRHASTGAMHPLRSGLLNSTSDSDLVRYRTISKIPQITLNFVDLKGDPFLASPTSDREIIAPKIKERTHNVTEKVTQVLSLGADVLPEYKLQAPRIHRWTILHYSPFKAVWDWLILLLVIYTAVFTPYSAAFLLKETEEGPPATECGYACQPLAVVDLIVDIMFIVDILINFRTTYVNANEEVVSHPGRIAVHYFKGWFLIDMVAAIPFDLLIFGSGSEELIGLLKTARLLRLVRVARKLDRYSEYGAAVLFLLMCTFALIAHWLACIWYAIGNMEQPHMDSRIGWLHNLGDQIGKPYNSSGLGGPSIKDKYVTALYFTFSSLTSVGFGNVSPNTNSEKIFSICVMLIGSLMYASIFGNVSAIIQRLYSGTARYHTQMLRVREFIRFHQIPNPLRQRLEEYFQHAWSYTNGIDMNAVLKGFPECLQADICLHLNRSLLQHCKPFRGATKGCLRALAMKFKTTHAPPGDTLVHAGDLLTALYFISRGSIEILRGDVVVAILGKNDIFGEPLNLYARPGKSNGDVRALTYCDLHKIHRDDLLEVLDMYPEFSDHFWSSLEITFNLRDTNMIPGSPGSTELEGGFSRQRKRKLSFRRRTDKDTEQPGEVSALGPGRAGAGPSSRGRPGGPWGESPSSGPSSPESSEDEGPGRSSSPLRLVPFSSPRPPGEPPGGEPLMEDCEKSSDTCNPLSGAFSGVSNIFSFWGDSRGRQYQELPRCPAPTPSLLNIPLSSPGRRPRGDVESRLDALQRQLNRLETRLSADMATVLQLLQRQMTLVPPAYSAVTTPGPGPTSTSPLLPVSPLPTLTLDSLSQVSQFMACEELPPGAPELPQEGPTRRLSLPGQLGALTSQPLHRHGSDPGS

SMILES	hERG current change (%, negative = inhibition) at 1uM
Cc1nc(C)n(CC(O)COc2ccc3c(c2)CCC3)n1 (stereo not shown)	3.77%
Cc1cccc(NS(=O)(=O)Cc2ccccc2)n1	1.28%
COc1ccc(-n2nnnc2SCC(=O)N2CCOCC2)cc1	0.0244%
Nc1c(Cl)ncnc1N1CCN(c2ncnc(Cl)c2N)CC1	8.26%
CCC1CCCCN1C(=O)c1ccc([N+](=O)[O-])o1 (stereo not shown)	12.1%
COc1ccc(C2CC(c3ccccc3O)=NN2c2ccccc2)cc1 (stereo not shown)	11.3%
CSCC[C@H](NC(=O)NCc1ccc(F)cc1)C(=O)O	0.257%
Cc1ccc(NC(=O)c2ccc(OC(=O)COc3cccc(Cl)c3)cc2)cc1	12.9%
Cc1ccc(C)n1-c1ncc(Br)cn1	14.1%
Brc1ccccc1OCCOCCOc1cccc2cccnc12	8.11%
Cc1[nH]nc2c1C(C(C)c1ccccc1)C(C#N)=C(N)O2 (stereo not shown)	7.79%
CC(C)(C)n1ncc2c(=O)n(CC(=O)NCCc3ccccc3)cnc21	6.79%
CCn1c(O)c(C=Nc2ccc(S(N)(=O)=O)cc2)c(=O)[nH]c1=S	10%
Cc1ccc(C)c(Cn2ncc3ccccc32)c1	10.1%
COC(=O)c1ccc(OC(=O)CCN2C(=O)C3C4c5ccccc5C(c5ccccc54)C3C2=O)cc1 (stereo not shown)	4.48%
OCC[C@@H]1C[C@H](O)[C@@H](O)[C@]2(Cc3ccccc3CO2)O1	1.79%
COC(=O)c1nnc(-c2ccccc2)nc1OC	7.08%
CCOC(=O)C1=C(C)Nc2ncnn2C1c1cccnc1 (stereo not shown)	19.5%
COc1ccc(OC)c(NC(=O)CN2C(=O)C(C)N(c3ccc(C)cc3)C2=O)c1 (stereo not shown)	3.58%
O=C(/C=C/c1ccccc1Cl)NCCCn1ccnc1	-3.72%
CCCOc1ccc(NC(=O)CC2C(=O)N(CC)C(=S)N2CCCN2CCN(Cc3ccccc3)CC2)cc1 (stereo not shown)	2.4%
O=C1CC(c2ccc(F)cc2)SC(N(c2ccccc2)c2ccccc2)=N1 (stereo not shown)	10.1%
CN(CC(=O)Nc1ccc(F)cc1)C(=O)COC(=O)c1cc(S(=O)(=O)N(C)C)ccc1N1CCCC1	11.8%
Cc1cccc2[nH]c3c(=O)n(CCN4CCNCC4)cnc3c12	6.01%
N#CC(c1ccc(F)cc1)c1ccc(C(=O)c2ccc(F)cc2)cc1 (stereo not shown)	12.1%
